# Experimental data: PubChem BioAssay AID1745845 (National Center for Advancing Translational Sciences (NCATS), 2022)
# Where “and” joins values, the source holds several entries; their conditions need not be identical. Equal entries are not always repeated. Screen size: about 360,000 compounds; about 2,600 (0.72%) were called active. The inconclusive results got no clear call from the source; some entries with a clear call stand among them for comparison. The call rests on the fitted dose curve; in most records, active means well fitted inhibition curve with a large enough effect; inconclusive means small, poorly fitted or top-dose-only effect; inactive means no such curve, though single readings can be large or run the other way. Potencies beside an inconclusive call are fits to weak or partial responses and may not hold up.
# Assay: Primary qHTS for Inhibitors of ATXN expression; further: nearly all actives have a fitted effect of over 55% in size
# Settings: HEK-293 ATXN2-luciferase reporter, luminescence, 24 h; activity change, negative = inhibition: at 57 µM (top of the series)
# Procedure, shortened: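 ATXN2-luciferase reporter cells (luciferase flanked by upstream and downstream ATXN2 gene portions) were treated 24 h at 37 °C with compounds at up to 57 uM. SteadyGlo luminescence gave expression; GF-AFC fluorescence gave viability.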
# On the % scale 0 is the no-effect control and ±100 the full control effect; potency means the concentration at half of the fitted maximal effect; tags describe the fitted curve by direction and shape.
Structure (SMILES),Potency,"activity change, negative = inhibition"
CCOC(=O)NC(=O)C(/C=N/c1sccc1C(=O)OC)=C(\C)O,"inconclusive: 8.91 µM [inhibitor, partial curve, poor fit]",–
O=c1c(Cc2ccc(Cl)cc2)c(O)ccn1Cc1ccncc1,"inconclusive: 0.0377 µM [inhibitor, partial curve, poor fit]",–
CCN(CC)CCNC(=O)c1cc2c(-c3cccc(OC)c3)nn(C)c2s1,"inconclusive: 25.1 µM [inhibitor, single point]",–
COc1ccc(C(C)=O)cc1COC(=O)c1c(C)nn(-c2ccccc2)c1C,"inconclusive: 39.8 µM [inhibitor, partial curve, poor fit]",–
COc1c2c(cc3c1C(CC(O)Cc1ccccc1)N(C)CC3)OCO2 (stereo not given),–,inactive: -16.4%
CCC(C)[C@H]1CNC(=S)N1CCc1cccc2ccccc12 (stereo not given in full),"inconclusive: 17.8 µM [inhibitor, partial curve, poor fit]",–
Cc1nc2c(OCC(=O)C(C)(C)C)cccn2c1N(C)Cc1cccs1,"inconclusive: 28.2 µM [inhibitor, single point]",–
CCN1CCc2c(OCC(=O)N3N=C(c4cccs4)CC3c3ccc(F)cc3)cccc2C1=O (stereo not given),"inconclusive: 4.47 µM [inhibitor, partial curve, poor fit]",–
COc1ccc(-c2cc(C3CCN(c4cc(Cl)nc(N)n4)CC3)[nH]n2)cc1,"inconclusive: 20 µM [inhibitor, single point]",–
COc1cc(N2CCC(N3CCN(C)CC3)CC2)ccc1Nc1ncnc(Nc2ccccc2S(=O)(=O)C(C)C)n1,active: 27.3 µM,–
O=C(CCC1COc2ccccc2O1)Nc1ccc(Cl)cn1 (stereo not given),"inconclusive: 39.8 µM [inhibitor, single point]",–
CCCNC(=O)c1ccc2c(=O)c(O)c(-c3ccsc3)[nH]c2c1,"inconclusive: 39.8 µM [inhibitor, single point]",–
Cc1ccc(NC(=O)Cn2c(=O)n(CCC(C)C)c(=O)c3cccnc32)cc1C,–,inactive: -1.02%
CCOCCCNC(=O)C(NC(=O)C1CCC(=O)N1)c1ccc(C)cc1 (stereo not given),–,inactive: 4.83%
c1ccc(OCCNc2nc(NCC3CC3)nc3cc(-c4ccccc4)sc23)cc1,"inconclusive: 31.6 µM [inhibitor, single point]",–
CCN(CCO)CCCC(C)Nc1ccnc2cc(Cl)ccc12 (stereo not given),"inconclusive: 43.2 µM [inhibitor, single point]",–
CCc1ccccc1S(=O)(=O)Cc1ccc(C(=O)N2CCN(c3ccccc3OC)CC2)o1,"inconclusive: 22.4 µM [inhibitor, single point]",–
CC(C)OC(=O)c1ccc(NCc2cc(O)ccc2O)cc1,"inconclusive: 21.2 µM [inhibitor, partial curve, poor fit]",–
CCN(CC)c1ccc(C(=C2C=CC(=[N+](CC)CC)C=C2)c2ccc(N(CC)CC)cc2)cc1,"inconclusive: 0.631 µM [inhibitor, full curve, poor fit]",–
Oc1ccccc1-c1nc(NCC2CCCO2)c2ccccc2n1 (stereo not given),"inconclusive: 14.1 µM [inhibitor, partial curve, poor fit]",–
O=C(N/N=C/c1cc(O)ccc1Br)c1cccnc1,active: 2.82 µM,–
CCOc1ccccc1N1CC(c2nc3ccccc3n2CCCCOc2ccccc2)CC1=O (stereo not given),–,inactive: -7.29%

Structure (SMILES),Potency,"activity change, negative = inhibition"
O=C(NNC(=S)NC(=O)c1ccco1)c1ccc(NC(=O)c2ccccc2)cc1,"inconclusive: 20 µM [inhibitor, partial curve, poor fit]",–
O=C(Cc1ccc(Cl)cc1Cl)Nc1ccncc1,–,inactive: -29.7%
COC(=O)C1=C(C)N(Cc2ccccc2)C(=NCc2cccc(C(F)(F)F)c2)N[C@H]1c1cccc(C(F)(F)F)c1,active: 28.2 µM,–
COc1ccc(CCNC(=O)CSc2cn(CCNC(=O)c3ccc(OC)c(OC)c3)c3ccccc23)cc1OC,"inconclusive: 15.8 µM [inhibitor, partial curve, poor fit]",–
O=C(NCCNCCO)c1c(O)c2cccc3c2n(c1=O)CCC3,"inconclusive: 22.4 µM [inhibitor, partial curve, poor fit]",–
Cn1cnc(C(=O)NC2CCN(C(=O)OC(C)(C)C)CC2)c1C(=O)NC1CCN(C(=O)OC(C)(C)C)CC1,–,inactive: 14.3%
CCN(Cc1ccccc1)C(c1ccc(C(F)(F)F)cc1)c1nnnn1C(C)(C)C (stereo not given),"inconclusive: 31.6 µM [inhibitor, single point]",–
COc1cccc(NS(=O)(=O)c2cc(-c3cnc(C4CC4)o3)ccc2C)c1,"inconclusive: 12.6 µM [inhibitor, partial curve, poor fit]",–
COc1ccccc1-c1cc(C(F)(F)F)nc(S(=O)(=O)CCCC(=O)O)n1,"inconclusive: 39.8 µM [inhibitor, single point]",–
Cc1cc(C)c2nc(Cl)c(C3NC(=O)c4ccccc4N3)cc2c1 (stereo not given),–,inactive: -32.4%
CCOc1ccc2nc(N(CCCN(C)C)C(=O)c3ccc4c(c3)CCCC4)sc2c1,"inconclusive: 14.1 µM [inhibitor, partial curve]",–
O=C(CSc1nnc(-c2ccccc2)n1Cc1ccccc1)NNC(=O)c1ccccc1O,"inconclusive: 39.8 µM [inhibitor, single point]",–
Cc1ccc(NS(=O)(=O)c2cc(NC(=O)c3ccc4c(c3)NC(=O)CS4)ccc2Cl)c(C)c1,"inconclusive: 39.8 µM [inhibitor, single point]",–
CNS(=O)(=O)c1cccc(C(=O)OCC(=O)c2ccc3c(c2)OCCO3)c1,active: 17.8 µM,–
Cc1cc(C)nc(NNS(=O)(=O)c2ccc(F)c(Cl)c2)n1,"inconclusive: 31.6 µM [inhibitor, single point]",–
COc1ccc(CN2CCN(C(=O)c3ccc(S(=O)(=O)N4CCCCCC4)cc3)CC2)cc1F,–,inactive: -36.9%
CCCNC(=O)C(Cc1cccc(Cl)c1)NC(=O)c1ccc(C#N)cc1 (stereo not given),–,inactive: 4.75%
Cc1ccc(-n2ncc3c2CCCC3NC(=O)c2ccoc2)cc1C (stereo not given),–,inactive: -20.5%
COCCCNC(=S)Nc1cc2oc3ccccc3c2cc1OC,"inconclusive: 39.8 µM [inhibitor, single point]",–
CCC[C@@H](C=O)NC(=O)[C@H](CC(C)C)NC(=O)[C@H](CC(C)C)NC(=O)OCc1ccccc1,active: 1.53 µM,–
CN(C)S(=O)(=O)c1ccc(-c2csc(N/N=C/c3ccc(O)cc3)n2)cc1,"inconclusive: 35.5 µM [inhibitor, single point]",–
CCN1CCN(c2cc(C)c3cc(NC(=O)c4cc(OC)cc(OC)c4)ccc3n2)CC1,"inconclusive: 39.8 µM [inhibitor, partial curve, poor fit]",–

Structure (SMILES),Potency,"activity change, negative = inhibition"
c1ccc(Cn2nnnc2C(c2cccs2)N2CCc3ccccc3C2)cc1 (stereo not given),"inconclusive: 31.6 µM [inhibitor, partial curve, poor fit]",–
COc1cc(C(=O)OC(C)C(=O)NCC2CCCCC2)cc(NC(=O)c2ccco2)c1OC (stereo not given),active: 25.1 µM,–
Cc1ccc(C(=O)Nc2cccc(C(F)(F)F)c2)cc1Nc1ccccn1,"inconclusive: 28.2 µM [inhibitor, single point]",–
O=C(NCC(O)CO)c1ccc2[nH]c3ccccc3c2c1 (stereo not given),–,inactive: 0.331%
N#C/C(=C\c1ccc(O)cc1)C(=O)N1CCCC1,–,inactive: -1.24%
CCOC(=O)Cc1csc(N/N=C/c2ccc(Cl)cc2)n1,–,inconclusive: -44.4% [inhibitor]
CCOC(=O)c1cnc2nc(SCc3ccccc3Cl)[nH]n2c1=O,"inconclusive: 15 µM [inhibitor, partial curve, poor fit]",–
CCCCCCCCCCCCCC(=O)NO,"inconclusive: 31.6 µM [inhibitor, single point]",–
COc1ccc(C(C)NC(=S)NCc2ccc(F)cc2)cc1 (stereo not given),–,inactive: -7.56%
CCOc1cc(CNC(C)(C)CO)cc(Br)c1OCc1ccc(Cl)cc1Cl,"inconclusive: 31.6 µM [inhibitor, partial curve, poor fit]",–
O=C(O)CCCc1ccc2c(c1)CCc1ccccc1-2,"inconclusive: 0.447 µM [inhibitor, full curve]",–
Cc1ccc(N2CCN(C(=O)c3nn(C)c4c3CS(=O)(=O)c3ccccc3-4)CC2C)cc1 (stereo not given),"inconclusive: 22.4 µM [inhibitor, single point] and inconclusive: 15.8 µM [inhibitor, partial curve, poor fit]",–
O=[N+]([O-])c1ccc(CN2CCN(c3ccc([N+](=O)[O-])cc3)CC2)cc1,"inconclusive: 37.7 µM [inhibitor, single point]",–
CCc1nc2ccc(C(=O)NCc3ccc4c(c3)OCO4)cn2c1N(CC)Cc1cccc(Br)c1,"inconclusive: 17.8 µM [inhibitor, partial curve, poor fit]",–
COc1ccc(C(=O)Nc2cccc(C(=O)N/N=C/c3ccc(OC)cc3OC)c2)cc1,active: 11.2 µM,–
CCN(CC(=O)Nc1cccc(OC)c1)c1ncnc2sc(C)c(C)c12,"inconclusive: 2 µM [inhibitor, partial curve]",–
CCc1cc(C(=O)NN2C(=O)NC3(CCCCC3)C2=O)sc1C,–,inactive: -1.75%
COc1ccc(COC(=O)c2cc([N+](=O)[O-])ccc2N2CCOCC2)cc1F,"inconclusive: 14.1 µM [inhibitor, partial curve, poor fit]",–
O=C(Nc1cc(Cl)ccc1-n1cncn1)c1ccc([N+](=O)[O-])s1,"inconclusive: 28.2 µM [inhibitor, partial curve, poor fit]",–
CCOC(=O)CNC(=O)CSc1ncnc2c1cnn2-c1ccc(OC)cc1,"inconclusive: 15.8 µM [inhibitor, partial curve, poor fit]",–
COc1ccc(NC(=O)CN(c2ccccc2C)S(C)(=O)=O)c(OC)c1,–,inconclusive: -39.8% [inhibitor]
